From patent US9279003B2, “Analogs of sodium channel peptide toxin” (priority 2010, dated 2016)
At least one peptide structure holds a part that was inferred or is arguable (an end, a ring closure or a residue). Where a SMILES comes first, the peptide text is derived from it. Bridges are numbered along the chain shown (N, C = ends).

What was measured:
human Nav1.7 = human Nav1.7 (Homo sapiens, UniProt Q15858); type: cell-based
Nav1.2 (rBIIa) = type: cell-based, rat

Sequence of human Nav1.7 (Q15858 other isoform, or with tags, fused parts or gaps): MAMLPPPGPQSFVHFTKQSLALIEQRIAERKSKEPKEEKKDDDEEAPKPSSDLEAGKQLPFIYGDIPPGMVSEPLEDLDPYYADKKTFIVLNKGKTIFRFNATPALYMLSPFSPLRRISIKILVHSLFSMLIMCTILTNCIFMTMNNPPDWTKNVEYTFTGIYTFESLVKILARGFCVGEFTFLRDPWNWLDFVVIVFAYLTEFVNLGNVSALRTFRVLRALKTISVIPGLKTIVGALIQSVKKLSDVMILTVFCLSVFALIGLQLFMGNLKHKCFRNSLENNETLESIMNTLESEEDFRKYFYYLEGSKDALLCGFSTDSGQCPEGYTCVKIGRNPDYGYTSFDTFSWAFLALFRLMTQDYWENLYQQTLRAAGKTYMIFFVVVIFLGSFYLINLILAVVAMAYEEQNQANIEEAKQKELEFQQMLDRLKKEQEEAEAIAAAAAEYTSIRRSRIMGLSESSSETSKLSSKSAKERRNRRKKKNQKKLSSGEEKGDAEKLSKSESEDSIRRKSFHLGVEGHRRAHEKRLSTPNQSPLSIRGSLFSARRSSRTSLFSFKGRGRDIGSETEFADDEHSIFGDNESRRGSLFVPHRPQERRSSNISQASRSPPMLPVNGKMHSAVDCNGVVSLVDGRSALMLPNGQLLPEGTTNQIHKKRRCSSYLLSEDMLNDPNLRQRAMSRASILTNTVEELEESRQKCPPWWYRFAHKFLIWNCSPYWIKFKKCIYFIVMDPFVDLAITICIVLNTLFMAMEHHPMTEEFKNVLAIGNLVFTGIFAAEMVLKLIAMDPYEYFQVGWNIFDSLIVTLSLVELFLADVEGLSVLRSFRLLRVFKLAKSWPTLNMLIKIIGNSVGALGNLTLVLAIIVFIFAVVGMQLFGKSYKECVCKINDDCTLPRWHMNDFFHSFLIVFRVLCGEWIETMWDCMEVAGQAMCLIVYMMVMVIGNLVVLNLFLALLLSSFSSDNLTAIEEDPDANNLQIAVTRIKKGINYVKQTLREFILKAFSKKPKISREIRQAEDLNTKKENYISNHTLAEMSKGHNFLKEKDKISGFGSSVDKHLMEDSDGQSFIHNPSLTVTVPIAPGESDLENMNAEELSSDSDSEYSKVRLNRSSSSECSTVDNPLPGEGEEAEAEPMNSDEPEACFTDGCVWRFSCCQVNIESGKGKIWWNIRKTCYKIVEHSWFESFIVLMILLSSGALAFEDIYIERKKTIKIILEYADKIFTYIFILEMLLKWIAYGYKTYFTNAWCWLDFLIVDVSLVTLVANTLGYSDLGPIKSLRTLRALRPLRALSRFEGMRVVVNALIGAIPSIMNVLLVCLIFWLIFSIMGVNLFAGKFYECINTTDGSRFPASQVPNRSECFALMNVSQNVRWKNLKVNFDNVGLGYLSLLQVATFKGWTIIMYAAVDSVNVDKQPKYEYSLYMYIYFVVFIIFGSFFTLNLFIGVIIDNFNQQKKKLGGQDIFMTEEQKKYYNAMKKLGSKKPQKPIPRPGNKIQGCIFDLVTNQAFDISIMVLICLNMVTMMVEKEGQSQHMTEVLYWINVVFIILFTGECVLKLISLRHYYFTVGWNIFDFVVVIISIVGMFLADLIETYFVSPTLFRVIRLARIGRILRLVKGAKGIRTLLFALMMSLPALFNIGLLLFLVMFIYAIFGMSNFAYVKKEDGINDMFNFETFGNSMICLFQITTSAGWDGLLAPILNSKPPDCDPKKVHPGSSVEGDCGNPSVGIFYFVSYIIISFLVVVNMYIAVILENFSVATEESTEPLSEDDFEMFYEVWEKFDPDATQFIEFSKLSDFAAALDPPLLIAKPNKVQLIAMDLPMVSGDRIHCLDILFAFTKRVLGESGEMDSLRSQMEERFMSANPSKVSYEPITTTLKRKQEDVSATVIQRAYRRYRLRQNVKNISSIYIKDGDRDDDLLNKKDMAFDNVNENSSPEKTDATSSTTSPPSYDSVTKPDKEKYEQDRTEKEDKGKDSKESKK

Compound | IC50 (human Nav1.7) [nM] | IC50 (Nav1.2 (rBIIa)) [nM]
CSCC[C@@H]1NC(=O)[C@H](Cc2c[nH]c3ccccc23)NC(=O)[C@H](CCCCN)NC(=O)[C@H](CCC(N)=O)NC(=O)[C@@H](NC(=O)[C@@H](N)Cc2ccc(O)cc2)CSSC[C@@H]2NC(=O)[C@@H]3CSSC[C@@H](C(=O)N[C@@H](CCCCN)C(=O)N[C@@H](CCCCN)C(=O)N[C@@H](CCCNC(=N)N)C(=O)N[C@@H](CC(C)C)C(=O)O)NC(=O)[C@H](Cc4c[nH]c5ccccc45)NC(=O)[C@H](CC(C)C)NC(=O)[C@H](CCC(N)=O)NC(=O)[C@H](CSSC[C@H](NC(=O)[C@H]([C@@H](C)O)NC(=O)[C@H](Cc4c[nH]c5ccccc45)NC1=O)C(=O)N[C@@H](CC(=O)O)C(=O)N[C@@H](CO)C(=O)N[C@@H](CCCCN)C(=O)N[C@@H](CCCNC(=N)N)C(=O)N[C@@H](CCCCN)C(=O)N3)NC(=O)[C@H](C(C)C)NC(=O)[C@H](CCSC)NC(=O)[C@H](CC(=O)O)NC(=O)[C@H](CCC(=O)O)NC2=O [GrTx I, reference compound] | 1010 | 2690
CSCC[C@@H]1NC(=O)[C@H](CC(=O)O)NC(=O)[C@H](CCC(=O)O)NC(=O)[C@@H]2CSSC[C@H](NC(=O)[C@@H](N)Cc3ccc(O)cc3)C(=O)N[C@@H](CCC(N)=O)C(=O)N[C@@H](CCCCN)C(=O)N[C@@H](Cc3c[nH]c4ccccc34)C(=O)N[C@@H](CC(C)C)C(=O)N[C@@H](Cc3c[nH]c4ccccc34)C(=O)N[C@@H]([C@@H](C)O)C(=O)N[C@H]3CSSC[C@H](NC(=O)[C@H](C(C)C)NC1=O)C(=O)N[C@@H](CCCNC(=N)N)C(=O)N[C@@H](CC(C)C)C(=O)N[C@@H](Cc1c[nH]c4ccccc14)C(=O)N[C@H](C(=O)N[C@@H](CCCCN)C(=O)N[C@@H](CCCCN)C(=O)N[C@@H](CCCNC(=N)N)C(=O)N[C@@H](CC(C)C)C(=O)O)CSSC[C@H](NC(=O)[C@H](CCCCN)NC(=O)[C@H](CCCNC(=N)N)NC(=O)[C@H](CCC(=O)O)NC(=O)[C@H](CO)NC(=O)[C@H](CC(=O)O)NC3=O)C(=O)N2 [GsAF I, reference compound] | 249 | 255
CC[C@H](C)[C@H](NC(=O)[C@H](CCCNC(=N)N)NC(=O)[C@H](CCCCN)NC(=O)[C@@H]1CSSC[C@@H]2NC(=O)[C@H](CCCCN)NC(=O)[C@H](CCCNC(=N)N)NC(=O)[C@H](CCC(=O)O)NC(=O)[C@H](CCC(=O)O)NC(=O)[C@H](CC(=O)O)NC(=O)[C@@H]3CSSC[C@H](NC(=O)[C@H](C(C)C)NC(=O)[C@H](CC(C)C)NC(=O)CNC(=O)[C@H](CCC(=O)O)NC(=O)[C@H](CSSC[C@H](NC(=O)[C@@H](N)Cc4ccc(O)cc4)C(=O)N[C@@H](CCC(N)=O)C(=O)N[C@@H](CCCCN)C(=O)N[C@@H](Cc4c[nH]c5ccccc45)C(=O)N[C@@H](CCSC)C(=O)N[C@@H](Cc4c[nH]c5ccccc45)C(=O)N[C@@H]([C@@H](C)O)C(=O)N3)NC2=O)C(=O)N[C@@H](CCCNC(=N)N)C(=O)N[C@@H](CC(C)C)C(=O)N[C@@H](Cc2c[nH]c3ccccc23)C(=O)N1)C(=O)N[C@H](C(=O)N[C@@H](CC(N)=O)C(=O)N[C@@H](CCSC)C(=O)O)[C@@H](C)CC [GsMTx II/PaTX II, reference compound] (H-YCQKWMWTCDEERKCCEGLVCRLWCKRIINM-OH; disulfide 2-16, 9-21, 15-25) |  | 2700
CC[C@H](C)[C@H](NC(=O)[C@@H](NC(=O)[C@H](CCCCN)NC(=O)[C@H](CCCNC(=N)N)NC(=O)[C@@H]1CSSC[C@@H]2NC(=O)[C@H](C)NC(=O)[C@H](CCCNC(=N)N)NC(=O)[C@H](CCCCN)NC(=O)[C@H](CO)NC(=O)[C@H](CC(=O)O)NC(=O)[C@@H]3CSSC[C@H](NC(=O)[C@H](CCCNC(=N)N)NC(=O)[C@H](CC(C)C)NC(=O)CNC(=O)[C@H](CCC(=O)O)NC(=O)[C@H](CSSC[C@H](NC(=O)[C@@H](N)Cc4ccc(O)cc4)C(=O)N[C@@H](CCC(N)=O)C(=O)N[C@@H](CCCCN)C(=O)N[C@@H](Cc4c[nH]c5ccccc45)C(=O)N[C@@H](CCSC)C(=O)N[C@@H](Cc4c[nH]c5ccccc45)C(=O)N[C@@H]([C@@H](C)O)C(=O)N3)NC2=O)C(=O)N[C@@H](CCCCN)C(=O)N[C@@H](CC(C)C)C(=O)N[C@@H](Cc2c[nH]c3ccccc23)C(=O)N1)[C@@H](C)CC)C(=O)O [JzTx V, reference compound] | 14 | 157
CC[C@H](C)[C@H](NC(=O)[C@@H](NC(=O)[C@H](CCCCN)NC(=O)[C@H](CCCCN)NC(=O)[C@@H]1CSSC[C@@H]2NC(=O)[C@H](CCCCN)NC(=O)[C@H](CCCNC(=N)N)NC(=O)[C@H](C)NC(=O)[C@H](CO)NC(=O)[C@H](CC(=O)O)NC(=O)[C@@H]3CSSC[C@H](NC(=O)[C@H](C(C)C)NC(=O)[C@H](CC(C)C)NC(=O)CNC(=O)[C@H](CCC(=O)O)NC(=O)[C@H](CSSC[C@H](NC(=O)[C@@H](N)Cc4ccc(O)cc4)C(=O)N[C@@H](CCC(N)=O)C(=O)N[C@@H](CCCCN)C(=O)N[C@@H](Cc4c[nH]c5ccccc45)C(=O)N[C@@H](CCSC)C(=O)N[C@@H](Cc4c[nH]c5ccccc45)C(=O)N[C@@H]([C@@H](C)O)C(=O)N3)NC2=O)C(=O)N[C@@H](CCCNC(=N)N)C(=O)N[C@@H](CC(C)C)C(=O)N[C@@H](Cc2c[nH]c3ccccc23)C(=O)N1)[C@@H](C)CC)C(=O)O [PaTx I, reference compound] (H-YCQKWMWTCDSARKCCEGLVCRLWCKKII-OH; disulfide 2-16, 9-21, 15-25) |  | 5000
CC[C@H](C)[C@H](NC(=O)[C@H](CCCCN)NC(=O)[C@H](CCCCN)NC(=O)[C@H](CCCCN)NC(=O)[C@@H]1CSSC[C@@H]2NC(=O)[C@H](CCCCN)NC(=O)[C@H](CCCNC(=N)N)NC(=O)[C@H](CCC(=O)O)NC(=O)[C@H](CCC(=O)O)NC(=O)[C@H](CC(=O)O)NC(=O)[C@@H]3CSSC[C@H](NC(=O)[C@H](C(C)C)NC(=O)[C@H](CC(C)C)NC(=O)CNC(=O)[C@H](CCC(=O)O)NC(=O)[C@H](CSSC[C@H](NC(=O)[C@@H](N)Cc4ccc(O)cc4)C(=O)N[C@@H](CCC(N)=O)C(=O)N[C@@H](CCCCN)C(=O)N[C@@H](Cc4c[nH]c5ccccc45)C(=O)N[C@@H](CCSC)C(=O)N[C@@H](Cc4c[nH]c5ccccc45)C(=O)N[C@@H]([C@@H](C)O)C(=O)N3)NC2=O)C(=O)N[C@@H](CCCNC(=N)N)C(=O)N[C@@H](CC(C)C)C(=O)N[C@@H](Cc2c[nH]c3ccccc23)C(=O)N1)C(=O)N[C@@H](CCC(=O)O)C(=O)N[C@@H](CCC(=O)O)C(=O)NCC(=O)O [VsTx II, reference compound] (H-YCQKWMWTCDEERKCCEGLVCRLWCKKKIEEG-OH; disulfide 2-16, 9-21, 15-25) | 9260 | 42400
CSCC[C@@H]1NC(=O)[C@H](Cc2c[nH]c3ccccc23)NC(=O)[C@H](CCCCN)NC(=O)[C@H](CCC(N)=O)NC(=O)[C@@H](NC(=O)[C@@H](N)Cc2ccc(O)cc2)CSSC[C@@H]2NC(=O)[C@@H]3CSSC[C@@H](C(=O)N[C@@H](CCCCN)C(=O)N[C@@H](CCCCN)C(=O)N[C@@H](CC(C)C)C(=O)N[C@@H](Cc4c[nH]c5ccccc45)C(=O)O)NC(=O)[C@H](Cc4c[nH]c5ccccc45)NC(=O)[C@H](CC(C)C)NC(=O)[C@H](CCCNC(=N)N)NC(=O)[C@H](CSSC[C@H](NC(=O)[C@H]([C@@H](C)O)NC(=O)[C@H](Cc4c[nH]c5ccccc45)NC1=O)C(=O)N[C@@H](CC(=O)O)C(=O)N[C@@H](CO)C(=O)N[C@@H](C)C(=O)N[C@@H](CCCNC(=N)N)C(=O)N[C@@H](CCCCN)C(=O)N3)NC(=O)[C@H](C(C)C)NC(=O)[C@H](CC(C)C)NC(=O)CNC(=O)[C@H](CCC(=O)O)NC2=O [compound 15] (H-YCQKWMWTCDSARKCCEGLVCRLWCKKLW-OH; disulfide 2-16, 9-21, 15-25) |  | 63
